# In PubChem BioAssay AID1476 (National Center for Advancing Translational Sciences (NCATS), 2009):
# Several values for one entry are separate records, joined by “and”; a condition that tells them apart may be missing. Equal entries are not always repeated. Among all 200,000 compounds or so, about 4,500 (2.2%) were called active. The inconclusive results got no clear call from the source; some entries with a clear call stand among them for comparison. The call rests on the fitted dose curve; in most records, active means well fitted inhibition curve with a large enough effect; inconclusive means small, poorly fitted or top-dose-only effect, or effect the other way; inactive means flat fitted curve, though single readings scatter. Potencies of inconclusive entries are doubtful fits and often do not repeat.
# Molecular target: Cruzipain (Trypanosoma cruzi) (UniProt P25779)
# Experiment: qHTS Assay for Promiscuous and Specific Inhibitors of Cruzain (without detergent); further: nearly all actives have a fitted effect of over 40% in size;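 on max response, negative = inhibition: plate controls were enzyme without inhibitor for no effect and buffer without enzyme for full effect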
# Conditions: purified cruzain, Z-FR-AMC fluorescence, no detergent
# Method in brief: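 Detergent-free condition (0.00005% Triton X-100) in acetate buffer pH 5.5 with DTT. 1.5 nM enzyme and compound were pre-mixed 15 min, then 2 uM Z-FR-AMC substrate added; reaction progress from fluorescence change between first and third reads (60 s).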
# Potency means the concentration at half of the fitted maximal effect; tags describe the fitted curve by direction and shape.
# Chain of UniProt P25779 (P25779 whole entry, looked up): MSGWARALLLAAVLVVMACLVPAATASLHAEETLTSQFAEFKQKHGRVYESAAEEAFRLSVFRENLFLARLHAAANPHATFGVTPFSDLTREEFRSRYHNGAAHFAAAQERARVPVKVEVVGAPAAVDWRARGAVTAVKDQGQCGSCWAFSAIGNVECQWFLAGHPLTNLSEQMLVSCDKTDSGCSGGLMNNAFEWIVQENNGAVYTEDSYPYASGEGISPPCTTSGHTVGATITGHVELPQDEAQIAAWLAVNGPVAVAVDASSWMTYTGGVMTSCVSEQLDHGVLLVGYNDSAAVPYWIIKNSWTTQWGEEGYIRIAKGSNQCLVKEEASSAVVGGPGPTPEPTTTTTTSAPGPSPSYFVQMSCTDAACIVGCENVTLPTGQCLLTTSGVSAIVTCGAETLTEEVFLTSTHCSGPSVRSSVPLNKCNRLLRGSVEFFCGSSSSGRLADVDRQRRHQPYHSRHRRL
SMILES,"max response, negative = inhibition",Potency
Cn1c(=O)oc2cc(S(=O)(=O)Nc3ccc(C(=O)O)cc3)ccc21,inactive: -7.02%,
O=S(=O)(CCc1ccccc1)c1nnnn1-c1ccc(F)cc1Br,inactive: 1.08%,
c1ccc(Cn2c(-c3cccs3)nc3nc4ccccc4nc32)cc1,,"inconclusive: 25.1 µM [activator, partial curve]"
Cn1c(=O)[nH]c(=O)c2c1nc(N(CCO)Cc1ccccc1)n2CCCc1ccccc1,,"inconclusive: 31.6 µM [activator, single point]"
CCC(=O)N1CCc2cc(S(=O)(=O)NC(C(=O)Nc3ccc(C(C)=O)cc3)C(C)C)ccc21 (stereo not drawn),inactive: -5.8%,
CCN1CCN(C(=S)c2ccc(Cl)cc2)CC1,inactive: -1.15%,
CC1=C(C(=O)OCC2CCCO2)C(c2ccccc2OC(C)C)C2=C(CC(c3ccco3)CC2=O)N1 (stereo not drawn),,"inconclusive: 31.6 µM [activator, single point]"
CCOC(=O)C1CCCN(c2ncnc3c2cnn3-c2cccc(C)c2)C1 (stereo not drawn),,"inconclusive: 31.6 µM [activator, single point]"
Cc1ccc(NC(=O)CSc2nc3n[nH]c(C)c3c(=N)n2-c2cccc(C)c2)cc1,,"inconclusive: 39.8 µM [activator, single point]"
CCOC(=O)C(NS(=O)(=O)c1ccc(C)cc1)(C(F)(F)F)P(=O)(OCC(C)C)OCC(C)C (stereo not drawn),inconclusive: 62.6% [activator],
CCOC(=O)c1cc2sccc2n1CC(=O)Nc1ccc(OC)cc1,inactive: 4.54%,
Nc1c(C(=O)NCCN2CCOCC2)c2nc3ccccc3nc2n1-c1cccc(F)c1,,"inconclusive: 6.31 µM [activator, partial curve]"
COC(=O)c1cc(=O)[nH]c(=O)[nH]1,inactive: 2.38%,
Cc1cc(OCC(=O)N(Cc2sccc2C)C2CCS(=O)(=O)C2)ccc1Cl (stereo not drawn),,"inconclusive: 31.6 µM [activator, single point]"
Cc1cc(C)c2c(CC(=O)Nc3c(C(=O)Nc4ccc(Cl)cc4)oc4ccccc34)coc2c1,inactive: -25%,
CCS(=O)(=O)Nc1ccc(C2=NN(C(=S)Nc3ccccc3)C(c3ccco3)C2)cc1 (stereo not drawn),,"inconclusive: 31.6 µM [inhibitor, single point]"
COc1ccc(F)cc1S(=O)(=O)NCCc1sc2nc(-c3ccc(F)cc3)nn2c1C,,"inconclusive: 25.1 µM [activator, partial curve]"
COC(=O)c1c(NC(=O)CN2CCC3(O)CCCCC3C2c2ccc(OC)cc2OC)sc(C)c1C (stereo not drawn),,"inconclusive: 39.8 µM [activator, single point]"
COc1cc(C(=O)Nc2ccc3oc(-c4ccc(C)c(Br)c4)nc3c2)cc(OC)c1OC,inactive: -1.3%,
CCOC(=O)/C(C#N)=C/c1cc(C)n(-c2ccc(Br)cc2)c1C,,"inconclusive: 31.6 µM [inhibitor, single point]"
COc1ccc(N2CCN(c3oc(/C=C/c4cc(OC)c(OC)c(OC)c4)nc3C#N)CC2)cc1,,"inconclusive: 20 µM [inhibitor, single point]"

SMILES,"max response, negative = inhibition",Potency
CCCN(CCC)c1nc2ccccc2n2c(C)nnc12,,"inconclusive: 39.8 µM [activator, single point]"
Cn1c(SCc2ccc(C#N)cc2)nnc1-c1ccccc1,,"inconclusive: 0.199 µM [inhibitor, single point]"
Cn1cc(Cl)c(C(=O)OCC(=O)Nc2nc(-c3ccc(Br)cc3)cs2)n1,,active: 31.6 µM
C[C@H]1[C@H]2CC[C@H]3[C@@H]4CC=C5C[C@@H](N(C)C)CC[C@]5(C)[C@H]4CC[C@]23CN1C,inactive: -5.59%,
O=C(/C=C/c1ccco1)Nc1cccc(-c2nc3ccccc3[nH]2)c1,,"inconclusive: 39.8 µM [inhibitor, single point]"
CC1CN(C(=O)Nc2ccc(C(=O)NCc3cccc(F)c3)cc2)c2ccccc2S1 (stereo not drawn),,"inconclusive: 39.8 µM [inhibitor, single point]"
Cc1cccc(-c2c3c(=O)n(C)c(=O)n(C)c3cn2-c2ccccc2O)c1,inactive: -16.7%,
NS(=O)(=O)c1ccc(N2N=C(c3ccccc3)CC2c2cccc(F)c2)cc1 (stereo not drawn),,"inconclusive: 15.8 µM [activator, partial curve]"
CC(C(=O)NCc1ccccc1F)n1ccc2cc(S(=O)(=O)N3CCCC3)ccc21 (stereo not drawn),inactive: 2.21%,
Cc1ccc2nc(SCc3nnc(-c4ccccc4[N+](=O)[O-])o3)c(C#N)cc2c1,,"inconclusive: 39.8 µM [inhibitor, single point]"
CCC(C)Sc1nnc(CNC(=O)C23CC4CC(CC(C4)C2)C3)n1C1CCCCC1 (stereo not drawn),,"inconclusive: 31.6 µM [activator, single point]"
Cn1cc(C(=O)c2ccc(Cl)cc2Cl)cc1C(=O)N/N=C(\N)COc1ccc(Cl)cc1Cl,,"inconclusive: 39.8 µM [inhibitor, single point]"
C=Cc1ccc(Cn2nc(-c3ccc(C)c(S(=O)(=O)N(CC)CC)c3)ccc2=O)cc1,,"inconclusive: 25.1 µM [activator, single point]"
Cc1ccc(NC(=O)CSc2nc3c(oc4ccccc43)c(=O)n2-c2ccc(F)cc2)c(C)c1,inactive: -27.6%,
COC(=O)c1cc(C(=O)Nc2nnc(C3CC3)s2)cc([N+](=O)[O-])c1,,"inconclusive: 31.6 µM [inhibitor, single point]"
COCCNC(=O)C(c1ccco1)N(C(=O)Cn1nnc2ccccc21)c1ccc(C)cc1C (stereo not drawn),,"inconclusive: 31.6 µM [activator, single point]"
CCOC(=O)c1ccc(N2CCN(c3cc(C)ccc3C)CC2)c(NC(=O)Nc2ccccc2)c1,,active: 7.94 µM
CCN1C(=O)c2cccc3c(NC(=O)c4ccc(OC)c(OC)c4)ccc1c23,,"inconclusive: 39.8 µM [activator, single point]"
Cc1ccc(O)c(NC(=O)c2cccc(NC(=O)c3ccco3)c2)c1,,"inconclusive: 0.005 µM [inhibitor, full curve, poor fit]"
CCOC(=O)c1sc2cccc(F)c2c1S(=O)(=O)N1CCN(c2cccc(Cl)c2)CC1,,"inconclusive: 20 µM [inhibitor, partial curve]"
COc1cccc(C(=O)N2c3cc(C)ccc3C(C)(c3ccccc3)CC2(C)C)c1 (stereo not drawn),,"inconclusive: 39.8 µM [inhibitor, single point]"

SMILES,"max response, negative = inhibition",Potency
CCOC(=O)c1c(C)nc2sc(C(=O)Nc3ccc(C(C)=O)cc3)c(N)c2c1-c1ccc(OC)cc1,,"inconclusive: 15.8 µM [activator, partial curve]"
Cn1cccc1C(=O)NC(=O)COC(=O)c1ccccc1Sc1ccccc1C#N,,"inconclusive: 39.8 µM [inhibitor, single point]"
COc1ccc(S(=O)(=O)NN(C)C)cc1N(C)S(=O)(=O)c1ccc(Cl)cc1,,"inconclusive: 39.8 µM [activator, single point]"
CC(C)Oc1cccc(-c2cc(C(=O)N3CCN(c4ncccn4)CC3)c3ccccc3n2)c1,,"inconclusive: 39.8 µM [activator, single point]"
O=C(NC(=S)Nc1ccc(S(=O)(=O)NC2CCCCC2)cc1)c1cccs1,,"inconclusive: 39.8 µM [inhibitor, single point]"
O=C(N/N=C/CCc1ccccc1)c1ccc(CN2c3cccc4cccc(c34)S2(=O)=O)cc1,,"inconclusive: 31.6 µM [inhibitor, partial curve, poor fit]"
CCCCC(Sc1nc2cc3c(cc2c(=O)n1CCCC(=O)NCc1ccc(OC)cc1)OCO3)C(=O)OCC (stereo not drawn),,"inconclusive: 6.31 µM [activator, single point]"
COc1ccc(N=CC2=C(O)c3ccccc3C2=O)cc1,inactive: -2.2%,
O=C(Nc1ccc2c(c1)Cc1ccccc1-2)c1ccc(Br)o1,,"inconclusive: 31.6 µM [inhibitor, partial curve, poor fit]"
CC(C)OCCCNC(=O)c1cc2c(-c3ccc(Cl)cc3)nn(C)c2s1,,"inconclusive: 25.1 µM [activator, single point]"
COc1ccc2c(C)c(CC(=O)NCc3ccc(C)cc3)c(=O)oc2c1OC,inactive: -4.16%,
CCOC(=O)c1c(C)[nH]c(C2=NNC(=Nc3cccc(Cl)c3)SC2)c1C,,active: 15.8 µM
Cc1ccc(NC(=O)c2c(C)oc3ccc(O)c(CN4CCCCCC4)c23)c(C)c1,,"inconclusive: 39.8 µM [inhibitor, single point]"
COc1cccc(-c2ccc3c(N)c(C(=O)c4ccc(Cl)cc4)sc3n2)c1,,active: 7.94 µM
O=C(Nc1nc2n(n1)C(c1ccccc1)C=C(c1ccccc1)N2)c1ccc(Cl)c([N+](=O)[O-])c1 (stereo not drawn),,"inconclusive: 39.8 µM [activator, single point]"
CCOc1ccccc1NC(=O)Cn1c(=O)n(Cc2ccccc2)c(=O)c2c(C)c(C)sc21,inactive: -8.61%,
CNC(=S)N/N=C/c1cn(CCOc2ccccc2OC)c2ccccc12,,active: 31.6 µM
O=C(Cc1cccs1)Nn1c(Cc2cccs2)nc2ccccc2c1=O,,"inconclusive: 15.8 µM [inhibitor, partial curve]"
Cc1cccc(C)c1Nc1sc(C(=O)c2ccccc2)c(N)c1C(=O)Nc1ccc(F)cc1,,"inconclusive: 3.16 µM [inhibitor, partial curve, poor fit]"
Cc1cccc(OCc2nc3c4c(ncn3n2)-c2ccccc2CC42CCCC2)c1,,"inconclusive: 39.8 µM [inhibitor, single point]"
CC#CCC1(C(=O)OC)C(=O)NC[C@H]1c1ccccc1 (stereo partly drawn),inactive: 1.05% and inactive: -8.54% and inactive: -0.833%,
